The whole screen tested about 45,000 compounds, of which about 200 (0.44%) were called active. Not shown: some 7% with an inconclusive outcome. Calls come from the whole dose curve; as a rule, active = well fitted activation curve with a large enough effect; inconclusive = small, poorly fitted or top-dose-only effect; inactive = no such curve, though single readings can be large or run the other way. The list shows a part of the results.
Potency is the fitted concentration of half-maximal effect.

The assay is described as follows: qHTS of TDP-43 Inhibitors: NCGC Sytravon Library Screen. For growth rescue (activation): 0% is about no effect. Note: nearly all actives have a fitted effect of over 55% in size. Particulars: yeast TDP-43 toxicity rescue, BacTiter-Glo growth, 24 h; series mostly up to 46.1 µM; growth rescue (activation): at the top concentration. The method, boiled down: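 TDP-43-expressing yeast, pregrown in raffinose, seeded at OD600 0.02 in galactose medium with compound for 24 hr at 30 deg C. Growth read by BacTiter-Glo luminescence, so rescue of toxicity appears as activation.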
Background: Quantitative high-throughput screening tests each substance at several concentrations.
Regarding `COC(=O)c1c(NC(=O)c2ccccc2F)sc(C(=O)N2CCOCC2)c1C`, the “growth rescue (activation)” value was inactive: 6.8%. On the same count and under the same terms, to `COc1cc(/C=C/C(=O)NC(C)CCc2ccccc2)cc(OC)c1OC` (stereo not drawn) belongs inactive: -23.3%. Still for that read-out and setting: to `O=[N+]([O-])c1ccc2c(c1)nc1n2CCCCC1` belongs inactive: 12%; to `CC1(C(=O)NS(=O)(=O)c2ccccc2)CCN1C(=O)COc1ccc(Cl)cc1` (stereo not drawn), inactive: 0.665%. Same read-out and setting: to `CCc1cc(C(=O)N2CCCC(CCC(=O)NCc3cccc(OC)c3)C2)no1` (stereo not drawn) belongs inactive: 5.33%; to `N#CCC(=O)N/N=C/c1cccc(Oc2ccccc2)c1`, inactive: 14.7%.

For `CCn1ccnc1CN(C)Cc1nc(CCC(C)C)no1`, the “growth rescue (activation)” value was inactive: 8.55%. On the same count and under the same terms, next, `Cc1cccc(NC(=O)CCCCCN2C(=O)c3ccccc3C2=O)n1`: inactive: 8.96%; `COc1ccc(NC(=O)C2C3CCC(O3)C2C(=O)O)c(C)c1` (stereo not drawn): inactive: -1.39%.

Regarding `O=C(CSc1nc2ccccc2[nH]1)c1c[nH]c2ccccc12`, the “growth rescue (activation)” value was inactive: -18.7%. Consider `CC1(C(=O)NS(=O)(=O)c2cccc(Cl)c2)CCN1C(=O)CCc1ccc(Cl)cc1Cl` (stereo not drawn), for which the “growth rescue (activation)” value is inactive: 12.9%. Same read-out and setting: next, `CC(NC(=O)C1CCN(S(=O)(=O)c2cccc3nonc23)CC1)c1ccccc1` (stereo not drawn): inactive: 8.37%.

As for `CCOc1ccccc1C(=O)N[C@H](C(=O)OCC(=O)Nc1nnc(-c2ccccc2)o1)C(C)C`, the “growth rescue (activation)” value is inactive: 5.4%. Same read-out and setting: to `CN(C(=O)COC(=O)c1cnc(Cl)c(Cl)c1)C1CCCCC1` belongs inactive: 15.4%; to `COc1cc(SC)ccc1C(=O)Nc1ccc(C)cc1C`, inactive: 25.5%; to `O=[N+]([O-])c1ccc(NCCCN2CCOCC2)c([N+](=O)[O-])c1`, inactive: -2.08%.

As for `COc1ccc(NC(=O)COc2ccc(/C=C/c3cccc[n+]3C)cc2OC)cc1`, the “growth rescue (activation)” value is inactive: -11.4%. On the same count and under the same terms, next, `CCc1ccccc1NS(=O)(=O)c1ccc2c(c1)NC(=O)CC(=O)N2`: inactive: 8.93%; `O=C(N/N=C\C=C\c1ccc([N+](=O)[O-])o1)c1cccs1`: inactive: 24.1%.

On to `CCOc1ccc(NC(=O)CSc2nnc(C)n2C2CC2)cc1S(=O)(=O)N1CCCC1`, for which the “growth rescue (activation)” value was inactive: 25.8%. Consider `O=C(C1=NN[C@@H]2C(=O)N(c3cccc(F)c3)C(=O)[C@H]12)c1ccc2ccccc2n1`, for which the “growth rescue (activation)” value is inactive: 21.9%.

Consider `NS(=O)(=O)c1ccc(CCNC(=O)CN2CCN(S(=O)(=O)c3ccccc3F)CC2)cc1`, for which the “growth rescue (activation)” value is inactive: -2.09%.

On to `O=C(CN1C2CCCC1CC(NC(=O)c1ccccc1)C2)Nc1ccccc1C(F)(F)F` (stereo not drawn), for which the “growth rescue (activation)” value was inactive: -10%. Same read-out and setting: to `COc1cc(/C=N/n2nnnc2N)ccc1OCc1c(C)no[n+]1[O-]` belongs inactive: 23.6%; to `O=C(COC(=O)CCN1C(=O)/C(=C\C=C\c2ccccc2)SC1=S)Nc1ccc(Br)cc1`, inactive: 4.31%; to `CC(=C\c1ccco1)/C=C1/SC(=S)N(CC(=O)O)C1=O`, inactive: 0.0647%. Turning to `Cc1cc(C)n2nc(SCC(=O)Nc3ccccc3C)nc2n1`, the “growth rescue (activation)” value was inactive: -2.81%. The same measure, in the same setting: to `CCCCc1nc2cc(C(=O)N3CCCCC3CC(=O)OCC)ccc2o1` (stereo not drawn) belongs inactive: 19.6%; to `O=C(O)/C=C/C(=O)Nc1ccc(OC(F)(F)Cl)cc1`, inactive: 0.0154%. As for `CCC(=O)Nc1nc(C)c(-c2csc(Nc3ccc(C(=O)O)cc3)n2)s1`, the “growth rescue (activation)” value was inactive: 5.8%. The same measure, in the same setting: to `CCN=c1scc(C)n1/N=C/c1ccsc1` belongs inactive: 32.1%; to `Cc1cc(-c2csc(NC(=O)c3ccc(C#N)cc3)n2)c(C)n1Cc1ccccc1`, inactive: -7.46%.

On to `CCOC(=O)c1c(C)[nH]c(C(=O)CSc2nc(C)cc(C)n2)c1C`, for which the “growth rescue (activation)” value is inactive: 15.7%. Still for that read-out and setting: next, `Cc1cccc(C)c1OCC(=O)Nc1ccc(S(=O)(=O)Nc2ccccn2)cc1`: inactive: 13.4%; `ClCc1ncc(-c2ccc(Cl)cc2)o1`: inactive: 12.6%; `O=C(NCCc1nc2ccccc2[nH]1)/C(=C/c1ccco1)NC(=O)c1ccc(Br)o1`: inactive: 6.81%. Still for that read-out and setting: to `COc1cccc(/C=C2\SC(=S)N(C(Cc3ccccc3)C(=O)O)C2=O)c1` (stereo not drawn) belongs inactive: 9.94%. Same read-out and setting: next, `Nc1nc(CSc2nc3ccccc3s2)nc(N2CCOCC2)n1`: inactive: 6.92%; `COc1ccc(S(=O)(=O)NC(C(=O)OCC(=O)Nc2ccc(N3CCOCC3)cc2)C(C)C)cc1` (stereo not drawn): inactive: 17.5%.

For the molecule `C(=N\n1cnnc1)/c1ccc(-c2ccccc2)cc1`, the Potency was active: 11.2 µM. Consider `CC(=O)c1ccc(N2CCN(C(=O)Cc3cccs3)CC2)cc1`, for which the “growth rescue (activation)” value was inactive: 10.8%. Regarding `CC1CCN(c2nc(N3CCCCC3)nc(N3CCCCC3)n2)CC1`, the “growth rescue (activation)” value was inactive: -2.61%. On the same count and under the same terms, to `Cc1ccc(NC(=O)c2ccoc2C)cc1C` belongs inactive: 2.3%; to `Cc1cc(C(=O)COc2ccc(F)cc2Br)c(C)n1C`, inactive: 23.9%; to `COc1ccc(C=NNC(=O)c2ccccc2OCc2ccc(F)cc2)c(OC)c1`, inactive: 17.7%. On to `NC(=O)c1cc(NC(=O)COC(=O)CCCN2C(=O)c3cccc4cccc(c34)C2=O)cc(C(N)=O)c1`, for which the “growth rescue (activation)” value was inactive: -25.4%.

On to `Cc1cc(NC(=O)CSc2nnc(C)n2C)no1`, for which the “growth rescue (activation)” value was inactive: 6.37%.

On to `COc1ccccc1N1C(=O)Cc2ccccc2C1=O`, for which the “growth rescue (activation)” value is inactive: -12.2%. Still for that read-out and setting: next, `CCN(CC)S(=O)(=O)c1cccc(C(=O)OC2CCOC2=O)c1` (stereo not drawn): inactive: -19.4%; `O=C(N/C(=C\c1ccc([N+](=O)[O-])cc1)C(=O)N1CCCCC1)c1ccccc1`: inactive: 2.02%. The same measure, in the same setting: to `CC(=O)Nc1ccc(Nc2cc(N3CCOCC3)c3nonc3c2[N+](=O)[O-])cc1` belongs inactive: -33.6%; to `CC(NS(=O)(=O)c1ccccc1)c1n[nH]c(=S)n1-c1ccccc1` (stereo not drawn), inactive: -7.64%; to `CCCc1cc(=O)[nH]c(SCC(=O)NCc2ccc3c(c2)OCO3)n1`, inactive: 8.35%.
